Data published in the RNAGym collection of RNA variant scans (doi:10.7554/elife.90254).
Read counts are not given, so values of variants with three or more changes are uncertain.

B1: LINE1-mini (parent)
chain: GGCAGAGCUCAACACAGCGUGGCAAAGUGGCUGUGGCUAGACUGCC

Variants of: B1
Assay: self-cleavage, relative activity (ratio to wild type); higher = more cleavage; in vitro, sequencing; the parent is a self-cleaving ribozyme

| Variant | self-cleavage |
| --- | --- |
| G5U C18G G22U | 0.03 |
| A12U G30U C37A | 0.05 |
| A4U C8U C10G A11G C46A | 0.02 |
| G5U C18A G29U | 0.09 |
| G1A A4C U9A G17C | 0.07 |
| U9G G17C A39C | 0.01 |
| G5U A16C A26U G30A | 0.04 |
| A12U U32C G33C G40U | 0.05 |
| G2C C8G C18G G21U | 0.04 |
| C13U A16C U32A A41U | 0.02 |
| C3U C42A C46A | 0.1 |
| G2C A4U C18U A26U | 0.04 |
| G19C A26U U38G | 0.01 |
| G2A G27A C31A | 0.35 |
| C3A U28A G44A | 0.47 |
| A12C C37A A41U | 0.56 |
| G17U U20A G22A | 0.82 |
| A11G A26G C31U | 0.02 |
| G5A G7A C31U G33U C37G | 0.03 |
| C8G G19A G29U A39U | 0.06 |
| G19A C37U U38C | 0.03 |

| Variant | self-cleavage |
| --- | --- |
| A14C A24U A25U A26U G35U | 0.05 |
| C3U G7C G33U A41G C46U | 0.06 |
| G7U C31U C46A | 0.17 |
| C3A A16G G30A | 0.24 |
| C13U A16U U28A A39U | 0.09 |
| C8G U20C A24U A26U G27A | 0.07 |
| G5U C15A A16C A41U C46G | 0.04 |
| C13G C18A G30A G35U | 0.08 |
| G7C U20G G35U G40A C45G | 0.09 |
| G1U G5C A24U A39U | 0.16 |
| A26C A39U C46A | 0.23 |
| G1C G2U G35C | 0.05 |
| G21A A24G C37G | 0.03 |
| A25C A26U G27U | 0.36 |
| A12G A14U C23G G35A | 0.02 |
| A25U A26G U28G C42A | 0.04 |
| A6U C15U C31A | 0.17 |
| A6U C15G G17U C18U G40U | 0.06 |
| C3G G27C A41C C45A | 0.03 |
| G5C G33U A41U | 0.07 |
| C8G U28A U34C | 0.03 |

| Variant | self-cleavage |
| --- | --- |
| A11C C23U A39G C46G | 0 |
| A6U G22U C31U U34C G40A | 0.15 |
| C13G A26U G35U | 1.25 |
| A14G G40A C45G | 0.56 |
| C8U C15A G17A U43C | 0.27 |
| C10A C13G C23G | 0.03 |
| G1C C23G A25C G30U | 0.02 |
| C3A C15A A16U C23G A24G G35C | 0.06 |
| C8U C10U C31U | 0.02 |
| C18G G36U C45A | 0.04 |
| G5A C8G A14G | 0.04 |
| A24G G29U G30C A39U | 0.03 |
| A4C A24G A39U | 0.02 |
| G1A C10A A26U C31G | 0.04 |
| G1C G7U A26G | 0.08 |
| G2A C18U A39G | 0.11 |
| U9A C15A G33A | 0.15 |
| A4G U9C C31A U43C C45A | 0.01 |
| C3G C10U A26C | 0.08 |
| G1C C3G C15A A16U | 0.15 |
| G5C U28G C37A | 0.21 |

| Variant | self-cleavage |
| --- | --- |
| G2C C13U G44A C46A | 0.06 |
| G2U A6G C8G C15U C23A G27U | 0.08 |
| C10U A16G G22A G30A U38C U43G | 0 |
| A14C A16G C45G | 0.03 |
| G1A G30U G44C | 0.12 |
| A12G G40C A41U | 0.02 |
| C8U G21U G22A G30A C31U | 0.02 |
| G17A G22U A24U U28G | 0.2 |
| A11G G36A A41C | 0.01 |
| A4G G17U G22U A24U A39U | 0.05 |
| A6U G22A C45G | 0.06 |
| A6C U9A C42U U43G | 0.12 |
| U9C A12C U34G C42A | 0.02 |
| U9A C15U G19C U38C | 0.32 |
| A12G U38C C42A U43G | 0.14 |
| A16U G21A G30U G35A C46U | 0.02 |
| C10A A24C U38G U43C | 0.01 |
| G7C C23U G27A | 0.18 |
| C13U A39G G44C | 0.07 |
| A6C G19U A24G | 0.28 |
| G5A C13G C15A G21U G29U U43C | 0.08 |
